Measured values as given in the RNAGym collection of RNA variant scans (doi:10.7554/elife.90254).
The source gives no read counts; variants with many changes may rest on few reads.

B1: LINE1-mini (parent)
chain: GGCAGAGCUCAACACAGCGUGGCAAAGUGGCUGUGGCUAGACUGCC

Variants of: B1
Assay: self-cleavage, relative activity (ratio to wild type); higher = more cleavage; in vitro, sequencing; the parent is a self-cleaving ribozyme

Variant	self-cleavage
U9A A26G U28A G30C C31U	0.15
U9A C18A U28G A41U	0.13
C8U U20C G21U G22A U28C C45U	0
U9A C18A A24G G36C G40U	0.01
C8U G36C G40C	0.25
U9A A24U C42G U43G	0.3
U9A C15U G21C C23U G27C	1.12
U9A A12U C13A	0.4
U9A C15G G30U U43A	0.19
U9A A11C C15A G29U G30A	0.01
C8U C18A U34A C37U	0.03
U9A C10U U20G G27U U38A	0.04
U9A C18G A39G	0.02
C8U U28A G33A	0.17
C8U G22U A26G C42U	0.29
C8U U20C G29U	0.25
U9A C10G A11U A39U C45G	0.04
U9A A39C C46A	0.08
C8U U9A G21A U34C A41C U43C	0.24
C8U G33U G35U	0.12
U9A A26C C31U G40U A41C	0

Variant	self-cleavage
C8U G21A U28G	0.22
C8U G21A U28A	0.32
C8U G22U A24U C31U G35U	0.16
C8U G22C G30U G40A	0.2
C8U C15U G36A	0.09
C8U U9G C10A A24C	0.03
C8U G27A G40U G44U C45A	0.17
C8U C15G U20A U28G	0.06
U9A C10A G17A G29C G36U	0.02
C8U G19U A26C	0.01
C8U U20C U34A C42G	0.07
U9A A11C A12U	0.04
U9A A11C G17U	0.03
C8U U9G U20G	0
U9A A14C G17C G29U G33U	0.07
C8U C23A U34A	0.04
C8U C18G G36U	0.17
C8U U34G A39C C42G	0.02
C8U U9A C10U	0.05
U9A C15G U20A	0.11
C8U C42A C45A	0.02

Variant	self-cleavage
C8U G22U G30C G36A U43G	0.14
C8U G22A C46U	0.16
C8U G22A G33U G44U	0.1
C8U U20G U43A	0.09
U9A A11G C23U	0.02
C8U G21A A26C C31U	0.09
C8U C18A C23A	0.07
C8U C18A G36C C37A C42G	0.05
U9A C18U G19U U38A G40C C42A	0.03
U9A A25C C31U	0.02
U9A C15G G40A	0.07
U9A G17C G30A G35C	0.02
U9A A25U U43A	0.48
C8U G17A C31G	0.09
C8U C37U U38A G40C C45G	0.08
C8U U9C G22A	0.08
U9A C23U C45A	0.11
U9A C13A G29U C45U	0.34
U9A C18G C31G	0.02
C8U C18A A39C	0.22
C8U C23U G36A C37U	0.04

Variant	self-cleavage
C8U C31U G40A	0.04
C8U C23U G36U	0.17
C8U C31A U34A	0.3
U9A C10G C31A G40U U43C	0.03
C8U U9G A12U C15A C23U A25G	0.05
U9A A16G G29C G40U	0.04
C8U U9A U34A	0.61
U9A C15G U20A G44A	0.3
C8U U20A G35U A41G G44A	0.07
C8U C31A U32G C45A	0.29
C8U G21U A24C	0.11
C8U U9C G21A G36A C46A	0
U9A C18G A41G	0.2
C8U G17A G21C	0.14
C8U G22C C31U C45U	0.07
U9A C15A C18U	0.05
C8U C15U C18A	0.04
U9A A14C C23U A26U C45A	0.09
C8U U20G A25G G36U	0.02
U9A A11U G44U	0.06
C8U C18G U34C A41C	0
